Laboratory results: PubChem BioAssay AID894 (National Center for Advancing Translational Sciences (NCATS), 2007)
Screen size: about 150,000 compounds; about 6,500 (4.3%) were called active. The inconclusive results got no clear call from the source; some entries with a clear call stand among them for comparison. The call rests on the fitted dose curve; in most records, active means well fitted inhibition curve with a large enough effect (not every such curve was filed as active); inconclusive means small, poorly fitted or top-dose-only effect, or another doubt; inactive means no such curve, though single readings can be large or run the other way. Potencies of inconclusive entries are left out as doubtful fits.

Molecular target: 15-hydroxyprostaglandin dehydrogenase [NAD(+)] (Homo sapiens) (UniProt P15428)
Sequence of UniProt P15428 (P15428 whole entry, looked up): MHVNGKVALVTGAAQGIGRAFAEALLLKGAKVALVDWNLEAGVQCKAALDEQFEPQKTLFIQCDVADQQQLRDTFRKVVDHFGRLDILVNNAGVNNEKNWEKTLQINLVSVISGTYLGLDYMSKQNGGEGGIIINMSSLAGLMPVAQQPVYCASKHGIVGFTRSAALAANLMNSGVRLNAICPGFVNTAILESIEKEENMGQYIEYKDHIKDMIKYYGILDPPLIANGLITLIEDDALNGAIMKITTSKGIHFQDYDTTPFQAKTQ
Assay: qHTS Assay for Inhibitors of HPGD (15-Hydroxyprostaglandin Dehydrogenase)
Details: purified HPGD, NADH fluorescence kinetic, PGE2 substrate; activity change, negative = inhibition: active compounds read low
In short: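 NADH formation kinetics: reaction with 30 uM PGE2 and 1 mM NAD+ (final), 20 nM enzyme, Tris-HCl pH 8 with Tween 20, after 15 min compound preincubation at room temperature. Fluorescence change, last versus first of five reads.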
On the % scale 0 is the no-effect control and ±100 the full control effect; potency means the concentration at half of the fitted maximal effect; tags describe the fitted curve by direction and shape.

Compound	Potency	activity change, negative = inhibition
Cc1ccc(Nc2c(-c3ccco3)nc3ccccn23)cc1	inconclusive [inhibitor, partial curve]	
CC(C)COc1ccc(C(=O)NCc2ccco2)cc1	active: 15.8 µM	
O=C(COc1ccc(S(=O)(=O)NC2CCCCC2)cc1Cl)NCc1cccnc1	inconclusive [inhibitor, single point]	
COc1ccc2[nH]c(=O)c(CN(Cc3nnnn3Cc3ccco3)C3CCCCC3)cc2c1	inconclusive [inhibitor, partial curve]	
Cc1ccc2nc(SCC(=O)c3ccc(Cl)s3)[nH]c2c1		inactive: -13.8%
Cc1cc(C(=O)CSc2n[nH]c(-c3ccccc3F)n2)c(C)n1Cc1cccs1	active: 12.6 µM	
Cc1ccccc1NS(=O)(=O)c1ccc(NC(=O)c2nc3ncccn3n2)cc1	inconclusive [inhibitor, single point]	
CNc1oc(-c2ccco2)nc1C#N	inconclusive [inhibitor, partial curve]	
Cc1ccc(S(=O)(=O)N(C)c2ccc(C(=O)NCC3CCCO3)cc2)cc1 (stereo not drawn)	active: 3.16 µM	
Cc1ccc2[nH]c3c(N4CCN(Cc5ccccc5)CC4)ncnc3c2c1	inconclusive [inhibitor, partial curve]	
CCOC(=O)c1c(NC(=O)CSc2nnc(-c3ccco3)o2)sc(C(C)=O)c1C	active: 15.8 µM	
COC(=O)c1cccc(-n2[nH]nnc2=S)c1	active: 28.2 µM	
O=C(O)CCSSCCC(=O)O		inactive: -5.44%
CCN(C(=O)COC(=O)/C=C/c1ccc(O)c(OC)c1)C1CCS(=O)(=O)C1 (stereo not drawn)	inconclusive [inhibitor, partial curve]	
O=C1OC(c2cccs2)=N/C1=C\c1ccc(-c2ccccc2Cl)o1	inconclusive [inhibitor, partial curve]	
CCOC(=O)c1c(NC(=O)C2=C(C)NC(=S)NC2c2ccc(F)cc2)sc(C)c1C (stereo not drawn)	inconclusive [inhibitor, partial curve]	
COc1ccc(-c2nc(CCNS(=O)(=O)c3ccc4c(c3)OCCO4)cs2)cc1	inconclusive [inhibitor, partial curve]	
Brc1ccc(-c2ccc(/C=N/Nc3nc4ccccc4[nH]3)o2)cc1	inconclusive [inhibitor, partial curve]	
COc1ccc(N/C(C)=C/C(=S)Nc2ccccc2)cc1		inactive: -21.7%
CCOC(=O)C1=C(COCCN)NC(C)=C(C(=O)OC)C1c1ccccc1Cl (stereo not drawn)		inactive: -11.9%
COc1ccc(S(=O)(=O)N2CCOCC2)cc1NC(=O)c1cc2c(s1)CCCC2	inconclusive [inhibitor, partial curve]	
COC(=O)c1c(NC(=O)CN2CCN(c3cccc(Cl)c3)CC2)sc(C)c1C	inconclusive [inhibitor, partial curve]	
COc1ccc(OC)c(N(CC(=O)Nc2cccnc2)S(=O)(=O)c2ccc(C)cc2)c1	active: 7.08 µM	
CCCOC(=O)c1ccc(NC(=O)/C=C/c2cccs2)cc1	inconclusive [inhibitor, single point]	

Compound	Potency	activity change, negative = inhibition
Cc1cccc(NC(=O)CSc2ncnc3c2oc2ccccc23)c1		inactive: -16.9%
Cn1c(/C(C#N)=N/O)nc2ccccc21		inactive: -5.17%
O=c1c2ccccc2c(/C=N/n2cnnc2)c(O)n1-c1ccccc1	inconclusive [inhibitor, partial curve]	
Cc1cccc(NC(=O)c2cc(-c3ccco3)nc3ccccc23)n1	inconclusive [inhibitor, partial curve]	
CCCCN(CC)C(=O)c1cc2cc3ccc(OC)cc3nc2o1	inconclusive [inhibitor, partial curve]	
COC(=O)[C@@]1(Cc2ccccc2)[C@H]2c3cc(C(=O)N(C)C)n(CCO)c3C[C@H]2CN1C(=O)c1ccccc1		inactive: -3.62%
COc1ccc(-n2c(C)cc(C=O)c2C)cc1Cl	active: 17.8 µM	
Cc1ccc(/C=C/C(=O)N2CCN(S(=O)(=O)c3ccc(C)c(C)c3)CC2)o1	active: 22.4 µM	
Cc1cc(=O)oc2c3c4c(cc12)OCCN4CCC3	inconclusive [inhibitor, partial curve]	
CN1CCN(Cn2cc(/C=C/C(=O)c3ccccc3)c3ccccc32)CC1	inconclusive [inhibitor, partial curve, poor fit]	
Cc1ccccc1CNC(=O)c1ccccc1	active: 15.8 µM	
O=C(c1cc(NC(=O)C23CC4CC(CC(C4)C2)C3)cc(NC(=O)C23CC4CC(CC(C4)C2)C3)c1)N1CCCCC1		inactive: -14.3%
Cc1cc(=O)oc2c1c(C)nn2-c1ccc(C(=O)OC(C)C)cc1		inactive: -13.3%
O=C(NCCOc1ccccc1F)c1cc(F)c(F)cc1Cl	active: 22.4 µM	
CCCCNC(=O)c1ccccc1NC(=O)c1ccccc1N(C)S(C)(=O)=O	active: 25.1 µM	
CCOC(=O)c1c(NC(=O)CSc2nnc(Cc3ccccc3)o2)sc(C)c1C		inactive: -21.2%
COCCN(C(=O)C(C)C)c1nnc(-c2ccc(C)cc2)s1	inconclusive [inhibitor, partial curve]	
O=C(Cc1n[nH]c(=O)c2ccccc12)Nc1ccc(-c2nnc3n2CCCCC3)cc1	active: 10 µM	
O=C(NCCN1CCCCC1)c1ccc2c(c1)OCCO2	active: 8.91 µM	
Cc1ccc(-c2cc(N)n[nH]2)cc1		inactive: -3.9%
CCc1cccc2nc3c(c([Si](C)(C)C)c12)Cn1c-3cccc1=O	inconclusive [inhibitor, partial curve]	
COCCCn1c(-c2ccsc2)nc2c1c(=O)[nH]c(=O)n2Cc1ccccc1	inconclusive [inhibitor, partial curve]	
COC(=O)c1c(NC(=O)Nc2ccc(Cl)cc2)sc(C)c1C		inactive: -22.4%
O=C(COC(=O)C1CC(=O)N(Cc2ccco2)C1)c1ccc(OC(=O)c2ccco2)cc1 (stereo not drawn)	active: 17.8 µM	
